Results taken from the supplement of paper PMC7125110.
± gives the standard error. This sample is rich in variants without activity.

B1: glmS ribozyme (parent)
chain: AUAAAAGCGCCAGAACUACAGAAAUGUAGUUGACGAGGAGGAGGUUUAUCGAAUUUUCGGCGGAUGCCUCCAAA

Assays:
Conditions in all cases: with glucosamine-6-phosphate
glucosamine-6-phosphate [1] = variants of: B1; experiment: self-cleavage kobs at 40 uM GlcN6P; higher = faster cleavage; RNA array
In short: (§1)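 Tracking of barcoded ribozyme variants used a hybridised Cy3 probe at 37 °C, after in situ transcription by E. coli RNA polymerase on sequenced MiSeq chips. The flowed solution held 40 μM to 10 mM glucosamine-6-phosphate in HEPES/KCl/Mg(OAc)2 buffer, and imaging ran over ~14 h. kobs was taken from exponential decay fits of normalised per-tile medians, and kcat and KM from weighted Michaelis–Menten fits.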

glucosamine-6-phosphate [2] = variants of: B1; experiment: self-cleavage kobs at 640 uM GlcN6P; higher = faster cleavage; RNA array
In short: as §1

glucosamine-6-phosphate [3] = variants of: B1; experiment: self-cleavage kobs at 160 uM GlcN6P; higher = faster cleavage; RNA array
In short: as §1

glucosamine-6-phosphate [4] = variants of: B1; experiment: self-cleavage kobs at 2500 uM GlcN6P; higher = faster cleavage; RNA array
In short: as §1

glucosamine-6-phosphate [5] = variants of: B1; experiment: self-cleavage kobs at 10000 uM GlcN6P; higher = faster cleavage; RNA array
In short: as §1

Variant | self-cleavage kobs at 40 uM GlcN6P (glucosamine-6-phosphate [1]) | self-cleavage kobs at 640 uM GlcN6P (glucosamine-6-phosphate [2]) | self-cleavage kobs at 160 uM GlcN6P (glucosamine-6-phosphate [3]) | self-cleavage kobs at 2500 uM GlcN6P (glucosamine-6-phosphate [4]) | self-cleavage kobs at 10000 uM GlcN6P (glucosamine-6-phosphate [5])
G35A | < 1e-05 s⁻¹ | < 1e-05 s⁻¹ | < 1e-05 s⁻¹ | < 1e-05 s⁻¹ | < 1e-05 s⁻¹
G35A A53G | < 1e-05 s⁻¹ | < 1e-05 s⁻¹ | < 1e-05 s⁻¹ | < 1e-05 s⁻¹ | < 1e-05 s⁻¹
G35A A53U G60A | < 1e-05 s⁻¹ | – | – | – | –
G35A C67U | < 1e-05 s⁻¹ | < 1e-05 s⁻¹ | < 1e-05 s⁻¹ | < 1e-05 s⁻¹ | –
G35A G44U U49A | < 1e-05 s⁻¹ | – | – | – | –
G35A G44U U65G | < 1e-05 s⁻¹ | < 1e-05 s⁻¹ | – | < 1e-05 s⁻¹ | < 1e-05 s⁻¹
G35A U45A | < 1e-05 s⁻¹ | < 1e-05 s⁻¹ | – | < 1e-05 s⁻¹ | < 1e-05 s⁻¹
G35A U45G | < 1e-05 s⁻¹ | < 1e-05 s⁻¹ | – | < 1e-05 s⁻¹ | –
G35A U47G C68U C70G C71G | < 1e-05 s⁻¹ | – | – | – | –
G35A U55A | < 1e-05 s⁻¹ | – | – | < 1e-05 s⁻¹ | –
G35A U56A | < 1e-05 s⁻¹ | – | < 1e-05 s⁻¹ | – | < 1e-05 s⁻¹
G35A U57C | < 1e-05 s⁻¹ | < 1e-05 s⁻¹ | < 1e-05 s⁻¹ | < 1e-05 s⁻¹ | < 1e-05 s⁻¹
G35C | < 1e-05 s⁻¹ | < 1e-05 s⁻¹ | < 1e-05 s⁻¹ | < 1e-05 s⁻¹ | < 1e-05 s⁻¹
G35C A36U G60A | < 1e-05 s⁻¹ | < 1e-05 s⁻¹ | – | < 1e-05 s⁻¹ | < 1e-05 s⁻¹
G35C A64C C70G | < 1e-05 s⁻¹ | – | – | – | –
G35C C50G | 3.26e-05 ± 1.4e-05 s⁻¹ | 4.8e-05 ± 1.6e-05 s⁻¹ | 7.69e-05 ± 3.7e-05 s⁻¹ | 0.000107 ± 1.2e-05 s⁻¹ | 0.000205 ± 1.5e-05 s⁻¹
G35C G40C C58G C70U | < 1e-05 s⁻¹ | – | – | – | –
G35C G43A | < 1e-05 s⁻¹ | – | < 1e-05 s⁻¹ | < 1e-05 s⁻¹ | –
G35C G43C C50U A53U U57A C68A | < 1e-05 s⁻¹ | – | – | – | < 1e-05 s⁻¹
G35C G44U | < 1e-05 s⁻¹ | < 1e-05 s⁻¹ | < 1e-05 s⁻¹ | – | < 1e-05 s⁻¹
G35C G44U C71G | < 1e-05 s⁻¹ | – | – | – | < 1e-05 s⁻¹
G35C G60C | < 1e-05 s⁻¹ | < 1e-05 s⁻¹ | < 1e-05 s⁻¹ | < 1e-05 s⁻¹ | < 1e-05 s⁻¹
G35C G60U | < 1e-05 s⁻¹ | – | – | < 1e-05 s⁻¹ | < 1e-05 s⁻¹

Variant | self-cleavage kobs at 40 uM GlcN6P (glucosamine-6-phosphate [1]) | self-cleavage kobs at 640 uM GlcN6P (glucosamine-6-phosphate [2]) | self-cleavage kobs at 160 uM GlcN6P (glucosamine-6-phosphate [3]) | self-cleavage kobs at 2500 uM GlcN6P (glucosamine-6-phosphate [4]) | self-cleavage kobs at 10000 uM GlcN6P (glucosamine-6-phosphate [5])
G35C U46G A48G U65C C68A | < 1e-05 s⁻¹ | – | – | – | –
G35C U56A | < 1e-05 s⁻¹ | < 1e-05 s⁻¹ | – | – | < 1e-05 s⁻¹
G35C U57G | < 1e-05 s⁻¹ | < 1e-05 s⁻¹ | – | – | –
G35U A36U C68A | < 1e-05 s⁻¹ | < 1e-05 s⁻¹ | < 1e-05 s⁻¹ | < 1e-05 s⁻¹ | –
G35U A48U A53U U65C | < 1e-05 s⁻¹ | – | < 1e-05 s⁻¹ | < 1e-05 s⁻¹ | < 1e-05 s⁻¹
G35U A52C | < 1e-05 s⁻¹ | – | – | – | –
G35U A52U | < 1e-05 s⁻¹ | < 1e-05 s⁻¹ | < 1e-05 s⁻¹ | < 1e-05 s⁻¹ | < 1e-05 s⁻¹
G35U A52U G59U | < 1e-05 s⁻¹ | < 1e-05 s⁻¹ | – | < 1e-05 s⁻¹ | < 1e-05 s⁻¹
G35U A53U U65G C70A | < 1e-05 s⁻¹ | – | – | – | < 1e-05 s⁻¹
G35U C50U C67G | 0.000272 ± 0.0001 s⁻¹ | – | – | – | –
G35U C58G | < 1e-05 s⁻¹ | < 1e-05 s⁻¹ | – | < 1e-05 s⁻¹ | –
G35U C58G G66U | < 1e-05 s⁻¹ | < 1e-05 s⁻¹ | – | – | < 1e-05 s⁻¹
G35U G38U | < 1e-05 s⁻¹ | < 1e-05 s⁻¹ | < 1e-05 s⁻¹ | < 1e-05 s⁻¹ | –
G35U G41C | < 1e-05 s⁻¹ | < 1e-05 s⁻¹ | – | < 1e-05 s⁻¹ | < 1e-05 s⁻¹
G35U G44A | < 1e-05 s⁻¹ | < 1e-05 s⁻¹ | < 1e-05 s⁻¹ | < 1e-05 s⁻¹ | < 1e-05 s⁻¹
G35U G44C | < 1e-05 s⁻¹ | – | < 1e-05 s⁻¹ | – | < 1e-05 s⁻¹
G35U G59C C68A | < 1e-05 s⁻¹ | – | – | – | < 1e-05 s⁻¹
G35U G63U C67U | < 1e-05 s⁻¹ | < 1e-05 s⁻¹ | < 1e-05 s⁻¹ | < 1e-05 s⁻¹ | < 1e-05 s⁻¹
G35U U45C | < 1e-05 s⁻¹ | < 1e-05 s⁻¹ | < 1e-05 s⁻¹ | < 1e-05 s⁻¹ | < 1e-05 s⁻¹
G35U U49C | < 1e-05 s⁻¹ | < 1e-05 s⁻¹ | < 1e-05 s⁻¹ | < 1e-05 s⁻¹ | –
G35U U54C U55A G59C | < 1e-05 s⁻¹ | – | – | – | < 1e-05 s⁻¹
A36C G41C U69A | < 1e-05 s⁻¹ | – | – | – | –
A36C G41U G59C | < 1e-05 s⁻¹ | – | – | < 1e-05 s⁻¹ | < 1e-05 s⁻¹

Variant | self-cleavage kobs at 40 uM GlcN6P (glucosamine-6-phosphate [1]) | self-cleavage kobs at 640 uM GlcN6P (glucosamine-6-phosphate [2]) | self-cleavage kobs at 160 uM GlcN6P (glucosamine-6-phosphate [3]) | self-cleavage kobs at 2500 uM GlcN6P (glucosamine-6-phosphate [4]) | self-cleavage kobs at 10000 uM GlcN6P (glucosamine-6-phosphate [5])
A36C G59U C68G | < 1e-05 s⁻¹ | – | – | – | –
A36C U49A | < 1e-05 s⁻¹ | < 1e-05 s⁻¹ | – | – | < 1e-05 s⁻¹
A36C U65G | < 1e-05 s⁻¹ | < 1e-05 s⁻¹ | < 1e-05 s⁻¹ | – | < 1e-05 s⁻¹
A36G | < 1e-05 s⁻¹ | – | < 1e-05 s⁻¹ | – | –
A36G A48G C70U | < 1e-05 s⁻¹ | < 1e-05 s⁻¹ | – | – | < 1e-05 s⁻¹
A36G A53G | < 1e-05 s⁻¹ | < 1e-05 s⁻¹ | < 1e-05 s⁻¹ | – | –
A36G C71U | < 1e-05 s⁻¹ | – | < 1e-05 s⁻¹ | – | –
A36G G51U | < 1e-05 s⁻¹ | < 1e-05 s⁻¹ | – | – | < 1e-05 s⁻¹
A36G U45A A53C U57C | < 1e-05 s⁻¹ | < 1e-05 s⁻¹ | – | < 1e-05 s⁻¹ | < 1e-05 s⁻¹
A36G U46C | < 1e-05 s⁻¹ | – | – | – | –
A36G U57A | < 1e-05 s⁻¹ | < 1e-05 s⁻¹ | < 1e-05 s⁻¹ | < 1e-05 s⁻¹ | < 1e-05 s⁻¹
A36U A39C | < 1e-05 s⁻¹ | – | – | – | –
A36U G37A G51U | < 1e-05 s⁻¹ | – | – | – | –
A36U G41U C70G | < 1e-05 s⁻¹ | – | – | – | –
A36U G51A | < 1e-05 s⁻¹ | – | < 1e-05 s⁻¹ | – | –
A36U G63C | < 1e-05 s⁻¹ | < 1e-05 s⁻¹ | – | – | –
A36U U45G | < 1e-05 s⁻¹ | < 1e-05 s⁻¹ | < 1e-05 s⁻¹ | < 1e-05 s⁻¹ | < 1e-05 s⁻¹
A36U U47A | < 1e-05 s⁻¹ | < 1e-05 s⁻¹ | < 1e-05 s⁻¹ | – | < 1e-05 s⁻¹
A36U U69A | 5.11e-05 ± 1.6e-05 s⁻¹ | – | – | 7.35e-05 ± 2.7e-05 s⁻¹ | –
G37A A48U U56C G66U | < 1e-05 s⁻¹ | – | – | – | < 1e-05 s⁻¹
G37A C61G | < 1e-05 s⁻¹ | < 1e-05 s⁻¹ | – | – | < 1e-05 s⁻¹
G37A G43U U55G | < 1e-05 s⁻¹ | – | – | – | –
G37C A39C U45C | < 1e-05 s⁻¹ | – | – | – | < 1e-05 s⁻¹

Variant | self-cleavage kobs at 40 uM GlcN6P (glucosamine-6-phosphate [1]) | self-cleavage kobs at 640 uM GlcN6P (glucosamine-6-phosphate [2]) | self-cleavage kobs at 160 uM GlcN6P (glucosamine-6-phosphate [3]) | self-cleavage kobs at 2500 uM GlcN6P (glucosamine-6-phosphate [4]) | self-cleavage kobs at 10000 uM GlcN6P (glucosamine-6-phosphate [5])
G37C A48C | < 1e-05 s⁻¹ | – | – | – | –
G37C A48G | < 1e-05 s⁻¹ | < 1e-05 s⁻¹ | < 1e-05 s⁻¹ | – | –
G37C A53C | < 1e-05 s⁻¹ | – | – | – | –
G37C C68A | < 1e-05 s⁻¹ | – | – | – | –
G37C G41U | < 1e-05 s⁻¹ | < 1e-05 s⁻¹ | < 1e-05 s⁻¹ | < 1e-05 s⁻¹ | < 1e-05 s⁻¹
G37C G44U A52G | < 1e-05 s⁻¹ | < 1e-05 s⁻¹ | < 1e-05 s⁻¹ | < 1e-05 s⁻¹ | –
G37C G59U | < 1e-05 s⁻¹ | – | – | – | < 1e-05 s⁻¹
G37C G60A | < 1e-05 s⁻¹ | < 1e-05 s⁻¹ | < 1e-05 s⁻¹ | < 1e-05 s⁻¹ | < 1e-05 s⁻¹
G37C G62A | < 1e-05 s⁻¹ | – | – | – | < 1e-05 s⁻¹
G37C G62U | < 1e-05 s⁻¹ | < 1e-05 s⁻¹ | < 1e-05 s⁻¹ | – | < 1e-05 s⁻¹
G37C G63C | < 1e-05 s⁻¹ | < 1e-05 s⁻¹ | – | – | < 1e-05 s⁻¹
G37U A39G C61A U69A | < 1e-05 s⁻¹ | – | – | – | < 1e-05 s⁻¹
G37U A39U | < 1e-05 s⁻¹ | < 1e-05 s⁻¹ | – | – | –
G37U A53G | < 1e-05 s⁻¹ | – | – | – | –
G37U G38A A42C | < 1e-05 s⁻¹ | < 1e-05 s⁻¹ | – | < 1e-05 s⁻¹ | < 1e-05 s⁻¹
G37U G43A | < 1e-05 s⁻¹ | – | < 1e-05 s⁻¹ | – | –
G37U G44C A52G | < 1e-05 s⁻¹ | – | – | – | –
G37U G51A | < 1e-05 s⁻¹ | – | < 1e-05 s⁻¹ | < 1e-05 s⁻¹ | < 1e-05 s⁻¹
G37U U49G G51C U65G | < 1e-05 s⁻¹ | – | – | – | –
G37U U56C C71G | < 1e-05 s⁻¹ | – | – | – | –
